{
  "source": "PubChem BioAssay AID1476",
  "about": "(National Center for Advancing Translational Sciences (NCATS), 2009)",
  "note": "The whole screen tested about 200,000 compounds, of which about 4,500 (2.2%) were called active. This list was built around the results that the source calls inconclusive (neither active nor inactive); the mix of calls is not that of the screen. Calls follow the shape of the dose curve; as a rule, active = well fitted inhibition curve with a large enough effect; inconclusive = small, poorly fitted or top-dose-only effect, or effect the other way; inactive = flat fitted curve, though single readings scatter. Where the call is inconclusive, the potency comes from a doubtful curve fit. Potency is read from the fitted curve at half-maximal effect; tags tell the direction and shape of the fitted curve.",
  "data": [
    {"molecular_target": "Cruzipain (Trypanosoma cruzi) (UniProt P25779)", "sequence (P25779 whole entry, looked up)": "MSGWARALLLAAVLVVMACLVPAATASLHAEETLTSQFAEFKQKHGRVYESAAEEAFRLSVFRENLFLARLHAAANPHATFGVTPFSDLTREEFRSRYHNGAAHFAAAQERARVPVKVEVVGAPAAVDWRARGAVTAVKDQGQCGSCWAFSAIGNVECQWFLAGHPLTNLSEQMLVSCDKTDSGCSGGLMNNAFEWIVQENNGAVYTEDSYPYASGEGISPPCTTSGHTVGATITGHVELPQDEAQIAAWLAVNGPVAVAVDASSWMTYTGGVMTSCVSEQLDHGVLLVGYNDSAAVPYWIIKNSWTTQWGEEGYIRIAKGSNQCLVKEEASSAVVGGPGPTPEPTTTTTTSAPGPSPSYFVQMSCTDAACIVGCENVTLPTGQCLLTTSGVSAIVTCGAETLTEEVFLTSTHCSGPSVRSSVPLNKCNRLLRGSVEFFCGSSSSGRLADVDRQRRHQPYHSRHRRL", "experiment": "qHTS Assay for Promiscuous and Specific Inhibitors of Cruzain (without detergent); also: nearly all actives have a fitted effect of over 40% in size;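 as to max response, negative = inhibition: plate controls were enzyme without inhibitor for no effect and buffer without enzyme for full effect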", "details": "purified cruzain, Z-FR-AMC fluorescence, no detergent", "outline": "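Detergent-free condition (0.00005% Triton X-100) in acetate buffer pH 5.5 with DTT. 1.5 nM enzyme and compound were pre-mixed 15 min, then 2 uM Z-FR-AMC substrate added; reaction progress from fluorescence change between first and third reads (60 s).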", "values": [
      {"smiles": "CC(=O)Nc1nnc(Cc2ccccc2)s1", "max response, negative = inhibition": "inactive: -3.6%"},
      {"smiles": "CCC(C)n1c(=N)c(C#N)cc2c(=O)n3ccccc3nc21", "note": "(centres undefined)", "Potency": "inconclusive: 31.6 µM [inhibitor, single point]"},
      {"smiles": "Cc1ccc(CNc2nc(N)c([N+](=O)[O-])c(NCc3ccccc3)n2)cc1", "Potency": "inconclusive: 31.6 µM [inhibitor, single point]"},
      {"smiles": "CCOC(=O)c1cccc(NC(=O)C2CCCN(S(=O)(=O)c3ccc4c(c3)oc(=O)n4C)C2)c1", "note": "(centres undefined)", "max response, negative = inhibition": "inactive: 23.1%"},
      {"smiles": "CN(/N=C/C=C/c1ccccc1)C1=NS(=O)(=O)c2ccccc21", "Potency": "inconclusive: 31.6 µM [inhibitor, single point]"},
      {"smiles": "COc1ccccc1CNC(=O)CN1C(=O)COc2ccc(S(=O)(=O)N3CCC(C)CC3)cc21", "max response, negative = inhibition": "inactive: 14.4%"},
      {"smiles": "O=C(NCc1ccccc1)C1COc2ccccc2O1", "note": "(centres undefined)", "Potency": "inconclusive: 25.1 µM [inhibitor, single point]"},
      {"smiles": "CC(=O)c1ccc(Nc2nc(NCCO)nc(OC(C(F)(F)F)C(F)(F)F)n2)cc1", "Potency": "inconclusive: 31.6 µM [activator, partial curve]"},
      {"smiles": "C=CCC(CC=C)(CNC(=O)C(=O)Nc1cc(C)ccc1OC)c1ccc(OC)c(OC)c1", "Potency": "inconclusive: 7.94 µM [activator, single point]"},
      {"smiles": "CCOc1ccc(CCNC(=O)CCc2c(C)nc3c(-c4ccccc4)c(C)nn3c2C)cc1OCC", "max response, negative = inhibition": "inactive: -6.88%"},
      {"smiles": "O=C(Nc1ccc(F)cc1)N1CCC(c2nc3c(nnn3Cc3cccc(Cl)c3)c(=O)[nH]2)CC1", "Potency": "inconclusive: 31.6 µM [activator, single point]"},
      {"smiles": "COc1cccc(/C=N/NC(=O)c2cccc([N+](=O)[O-])c2)c1OS(=O)(=O)c1ccc(C)cc1", "Potency": "inconclusive: 39.8 µM [inhibitor, single point]"},
      {"smiles": "O=C(COC(=O)c1cccs1)Nc1nc(-c2ccccc2)cs1", "Potency": "active: 10 µM"},
      {"smiles": "Cc1nc2ccc(S(=O)(=O)CCC(=O)Nc3ccc(C)c(C)c3)cc2s1", "max response, negative = inhibition": "inactive: -3.35%"},
      {"smiles": "COc1ccccc1/C=C/C1=NC(=C\\C=C/c2ccccc2)/C(=O)O1", "Potency": "active: 25.1 µM"},
      {"smiles": "C[C@H]1CS(=O)(=O)CCN1/N=C\\c1ccc([N+](=O)[O-])o1", "max response, negative = inhibition": "inactive: -16.3%"},
      {"smiles": "Cc1cccc(N2C(=O)c3cccc4c(N5CCCCC5)c([N+](=O)[O-])cc(c34)C2=O)c1C", "Potency": "inconclusive: 31.6 µM [inhibitor, single point]"},
      {"smiles": "Cc1ccn2c(Nc3ccc4c(c3)OCO4)c(-c3ccc(N(C)C)cc3)nc2c1", "Potency": "inconclusive: 31.6 µM [inhibitor, single point]"},
      {"smiles": "CCOc1ccc(NC(=O)CC2C(=O)N(c3ccccc3)C(=O)N2C2CCCCC2)cc1", "note": "(centres undefined)", "max response, negative = inhibition": "inactive: -2.66%"},
      {"smiles": "Cc1ccc(S(=O)(=O)N2CCN(Cc3noc(CCC(=O)N4CCCCC4)n3)CC2)c(C)c1", "Potency": "inconclusive: 39.8 µM [activator, single point]"},
      {"smiles": "COc1cccc(C(=O)NCC(=O)OCc2cc(=O)n3c(C)csc3n2)c1", "max response, negative = inhibition": "inactive: -1.18%"},
      {"smiles": "CCOc1cc(C(=O)Nc2c3c(nn2C(C)(C)C)CS(=O)C3)cc(OCC)c1OCC", "note": "(centres undefined)", "Potency": "inconclusive: 20 µM [activator, partial curve]"},
      {"smiles": "CCOC(=O)N1CCN(C(=O)CSc2cc(C)nc3c(-c4ccccc4OC)c(C)nn23)CC1", "Potency": "inconclusive: 31.6 µM [activator, single point]"},
      {"smiles": "COc1cc(C(=O)Nc2ccc3[nH]c(=O)sc3c2)cc(OC)c1OC", "max response, negative = inhibition": "inactive: -7.05%"},
      {"smiles": "O=S(=O)(c1ccccc1)N1CCn2c(nc3ccccc32)C1", "max response, negative = inhibition": "inactive: -13.4%"},
      {"smiles": "COCCCn1c(SCC(=O)Nc2ccc(C(=O)OC)cc2)nc2ccccc2c1=O", "Potency": "inconclusive: 31.6 µM [activator, single point]"},
      {"smiles": "COc1cccc2sc(N(Cc3cccnc3)C(=O)Cc3ccccc3)nc12", "Potency": "inconclusive: 39.8 µM [activator, single point]"},
      {"smiles": "COc1cc2nc(/C=C/c3cc(OC)c(OC)c(OC)c3)sc2cc1SC", "Potency": "inconclusive: 39.8 µM [activator, single point]"},
      {"smiles": "CC1=CC(c2ccc(Cl)cc2)n2nc(NS(=O)(=O)c3ccc(C)cc3)nc2N1", "note": "(centres undefined)", "Potency": "inconclusive: 31.6 µM [activator, single point]"},
      {"smiles": "CCN(CC)CCCNC(=O)CSc1c2c(nc3cc(Cl)ccc13)CCCC2", "Potency": "inconclusive: 39.8 µM [inhibitor, single point]"},
      {"smiles": "Cc1ccc(-c2cc(C(=O)N/N=C/c3c(C)nn(-c4ccccc4)c3C)n[nH]2)s1", "Potency": "inconclusive: 39.8 µM [activator, single point]"},
      {"smiles": "Cc1cccc(NC(=O)Cn2nnc(C(=O)Nc3ccc(F)c(Cl)c3)c2N)c1", "Potency": "active: 25.1 µM"},
      {"smiles": "O=C(/C(=N\\Nc1ccc([N+](=O)[O-])cc1)Sc1nnnn1-c1ccccc1)c1ccccc1", "Potency": "inconclusive: 39.8 µM [inhibitor, single point]"},
      {"smiles": "O=C(O)c1sccc1Oc1ccc(F)cc1[N+](=O)[O-]", "Potency": "inconclusive: 3.16 µM [inhibitor, single point]"},
      {"smiles": "O=C(CSc1nnc(SCc2ccc(Cl)cc2)s1)N/N=C/c1c(Cl)cccc1Cl", "Potency": "inconclusive: 25.1 µM [inhibitor, single point]"},
      {"smiles": "Cc1cccc(N2CCN(C(=O)Cc3c(C(=O)O)[nH]c4ccc(Cl)cc34)CC2)c1C", "Potency": "inconclusive: 31.6 µM [activator, single point]"},
      {"smiles": "O=C(c1ccc(Cl)cc1)c1c[nH]cc1-c1ccccc1", "Potency": "inconclusive: 31.6 µM [inhibitor, single point]"},
      {"smiles": "O=c1[nH]cc(CS(=O)(=O)Cc2c[nH]c(=O)[nH]c2=O)c(=O)[nH]1", "max response, negative = inhibition": "inactive: 0.592%"},
      {"smiles": "COC(=O)c1cc2c(ccn2-c2ccc(F)cc2)n1Cc1ccc(OC)cc1", "Potency": "inconclusive: 39.8 µM [inhibitor, single point]"},
      {"smiles": "Cc1nc(-c2ccc(Cl)cc2)sc1CCNC(=O)Cc1ccc(F)cc1", "Potency": "inconclusive: 31.6 µM [activator, single point]"},
      {"smiles": "Cc1ccc(C)c2[nH]c(=O)c(CN(Cc3nnnn3C3CCCCC3)CC3CCCO3)cc12", "note": "(centres undefined)", "Potency": "inconclusive: 31.6 µM [activator, single point]"},
      {"smiles": "Oc1[nH]c2ccccc2c1N=NC(=S)NCCc1ccccc1", "max response, negative = inhibition": "inactive: 0.8%"},
      {"smiles": "Cc1ccc(C)c(N2CCN(C(=O)C3CCCN(S(=O)(=O)c4cccc5nsnc45)C3)CC2)c1", "note": "(centres undefined)", "max response, negative = inhibition": "inactive: -4.31%"},
      {"smiles": "CCN(CC)C(=O)Cn1c(=O)n(-c2ccc(OC)cc2OC)c(=O)c2c(C)c(C(=O)N(CC)CC)sc21", "max response, negative = inhibition": "inactive: -2.39%"},
      {"smiles": "Cc1ccc(S(=O)(=O)/N=C(/NC(=S)Nc2ccccc2)c2ccccc2)cc1", "max response, negative = inhibition": "inactive: -7.64%"},
      {"smiles": "COc1ccc(NC(=O)c2c(-c3ccc(C)cc3)nnc3ccccc23)cc1Cl", "Potency": "inconclusive: 12.6 µM [inhibitor, partial curve]"},
      {"smiles": "O=C(CNC(=O)c1ccccc1F)OCc1cc(=O)n2ccsc2n1", "Potency": "inconclusive: 20 µM [inhibitor, single point]"},
      {"smiles": "COc1ccc(-n2nc(C(=O)Nc3ccc(C)cn3)c3c4ccccc4n(C)c3c2=O)cc1", "max response, negative = inhibition": "inactive: -13.5%"},
      {"smiles": "Cc1ccc(-n2cc(-c3ccccc3)nc2S(=O)(=O)CC(=O)Nc2ccc(F)cc2)cc1", "max response, negative = inhibition": "inactive: 26.9%"},
      {"smiles": "COc1ccc(C(=O)Oc2c(CN3CCOCC3)cc(Cl)c3cccnc23)cc1", "Potency": "inconclusive: 39.8 µM [activator, single point]"},
      {"smiles": "Cc1ccc(N(CC(=O)NCc2ccc(F)cc2)S(=O)(=O)c2c(C)nn(C)c2C)cc1", "Potency": "inconclusive: 39.8 µM [activator, single point]"},
      {"smiles": "O=C(Nn1cc(C(=O)N2CCN(c3ccccc3F)CC2)c2ccccc2c1=O)c1cnccn1", "Potency": "inconclusive: 39.8 µM [activator, single point]"},
      {"smiles": "N/C(=N\\c1nc2ccccc2o1)NC(=O)c1ccc(Cl)cc1", "Potency": "inconclusive: 39.8 µM [inhibitor, single point]"},
      {"smiles": "CCCCn1c(=O)n(CC(=O)Nc2ccc(OC)c(Cl)c2)c(=O)c2c1nc(CO)n2CCC", "Potency": "inconclusive: 39.8 µM [activator, single point]"},
      {"smiles": "CNS(=O)(=O)c1cn(CC(=O)Nc2cccc(OC)c2)cc1S(=O)(=O)NC", "max response, negative = inhibition": "inactive: -2.3%"},
      {"smiles": "CCOC(=O)Cn1c(=O)n(CC2CCCO2)c2nc(-c3cccc(C)c3)nc(C(N)=O)c21", "note": "(centres undefined)", "max response, negative = inhibition": "inactive: 0.0267%"},
      {"smiles": "COC(=O)c1ccc(-n2c(CCC(=O)O)ccc2-c2ccc(C)cc2)cc1", "Potency": "inconclusive: 39.8 µM [activator, single point]"},
      {"smiles": "CC(=O)Nc1nonc1-c1nnc(SCC(=O)Nc2ccccc2)n1-c1ccccc1", "Potency": "inconclusive: 39.8 µM [activator, single point]"},
      {"smiles": "COC(=O)CSc1nnc2n(C3CCCCC3)c(=O)c3c4c(sc3n12)CCCC4", "Potency": "inconclusive: 39.8 µM [activator, single point]"},
      {"smiles": "CC1CCc2c(sc3nc(CN4CCOCC4)nc(NS(=O)(=O)c4cccc([N+](=O)[O-])c4)c23)C1", "note": "(centres undefined)", "Potency": "inconclusive: 25.1 µM [activator, partial curve]"},
      {"smiles": "CC1CC(C)CN(C(=O)c2ccc3c(=O)n(Cc4ccc5c(c4)OCO5)c(=S)[nH]c3c2)C1", "note": "(centres undefined)", "Potency": "inconclusive: 39.8 µM [inhibitor, single point]"},
      {"smiles": "CCc1cccc2c(C(=O)CCl)c[nH]c12", "Potency": "inconclusive: 31.6 µM [inhibitor, single point]"},
      {"smiles": "CC(C)=N[C@H](C(=O)O)C(C)(C)S", "max response, negative = inhibition": "inactive: 5.49%"},
      {"smiles": "Cc1cc2oc(=O)cc(CN3CCCc4ccccc43)c2cc1C", "Potency": "inconclusive: 39.8 µM [inhibitor, single point]"}
    ]}
  ]
}
